A word on the MIC: it is the least concentration at which growth counts as inhibited.

MIC of invasive clinical C. tropicalis isolates, CLSI broth microdilution (fluconazole 0.12-256 mg/L, up to 1,024 for the azole-resistant cluster and its neighbour group; other ranges not stated); higher = less susceptible. Call: susceptible or wild type [S] / resistant or non-wild type [R] by CLSI breakpoints or cut-offs; intermediate and dose-dependent carry no call. '<=' and '>=' at the end values are inferred; the source marks only some of them. Isolates are numbered anew.

What all share (experiment): CLSI broth microdilution.
Compound in assay [1]: C[C@@H](c1ncncc1F)[C@](O)(Cn1cncn1)c1ccc(F)cc1F [voriconazole]
Compound in assay [2]: Nc1[nH]c(=O)ncc1F [flucytosine]
Compound in assay [3]: CCC(C)n1ncn(-c2ccc(N3CCN(c4ccc(OCC5COC(Cn6cncn6)(c6ccc(Cl)cc6Cl)O5)cc4)CC3)cc2)c1=O [itraconazole]
Compound in assay [4]: CCCCCOc1ccc(-c2cc(-c3ccc(C(=O)N[C@H]4C[C@@H](O)[C@@H](O)NC(=O)[C@@H]5[C@@H](O)[C@@H](C)CN5C(=O)[C@H]([C@H](O)CC(N)=O)NC(=O)[C@H]([C@H](O)[C@@H](O)c5ccc(O)c(OS(=O)(=O)O)c5)NC(=O)[C@@H]5C[C@@H](O)CN5C(=O)[C@H]([C@@H](C)O)NC4=O)cc3)no2)cc1 [micafungin]
Compound in assay [5]: OC(Cn1cncn1)(Cn1cncn1)c1ccc(F)cc1F [fluconazole]
Compound in assay [6]: CCCCCOc1ccc(-c2ccc(-c3ccc(C(=O)N[C@H]4C[C@@H](O)[C@@H](O)NC(=O)[C@@H]5[C@@H](O)[C@@H](C)CN5C(=O)[C@H]([C@@H](C)O)NC(=O)[C@H]([C@H](O)[C@@H](O)c5ccc(O)cc5)NC(=O)[C@@H]5C[C@@H](O)CN5C(=O)[C@H]([C@@H](C)O)NC4=O)cc3)cc2)cc1 [anidulafungin]
Compound in assay [7]: CC[C@H](C)C[C@H](C)CCCCCCCCC(=O)N[C@H]1C[C@@H](O)[C@@H](NCCN)NC(=O)[C@@H]2[C@@H](O)CCN2C(=O)[C@H]([C@H](O)CCN)NC(=O)[C@H]([C@H](O)[C@@H](O)c2ccc(O)cc2)NC(=O)[C@@H]2C[C@@H](O)CN2C(=O)[C@H]([C@@H](C)O)NC1=O [caspofungin]
Compound in assay [8]: C[C@@H]1[C@H](O)[C@@H](C)/C=C/C=C/C=C/C=C/C=C/C=C/C=C/[C@H](O[C@@H]2O[C@H](C)[C@@H](O)[C@H](N)[C@@H]2O)C[C@@H]2O[C@](O)(C[C@@H](O)C[C@@H](O)[C@H](O)CC[C@@H](O)C[C@@H](O)CC(=O)O[C@H]1C)C[C@H](O)[C@H]2C(=O)O [amphotericin B]
Compound in assay [9]: CC[C@@H]([C@H](C)O)n1ncn(-c2ccc(N3CCN(c4ccc(OC[C@@H]5CO[C@@](Cn6cncn6)(c6ccc(F)cc6F)C5)cc4)CC3)cc2)c1=O [posaconazole]

As to “Candida tropicalis isolate 95 (ERG11 copies: 2, Erg11p: no key change)”, the MIC in assay [1] is 0.5 µg/mL; in assay [2], at most 0.06 mg/L [S]; in assay [3] it was 0.25 mg/L [S]; in assay [4], 0.03 mg/L [S]; in [5], 4 µg/mL; in assay [6], 0.03 mg/L [S]. Moreover, the MIC in [7] was 0.03 mg/L [S]; in assay [8], 1 mg/L [S]; in assay [9] it was 0.5 mg/L [R].

Consider “Candida tropicalis isolate 34 (ERG11 copies: 5, Erg11p: Y132F, S154F (heterozygous))”, for which the MIC in [1] was at least 8 mg/L [R]; in assay [2] it was at most 0.06 mg/L [S]; in [3] it was 0.5 mg/L [S]; in [4] it was 0.06 mg/L [S]; in assay [5] it was 256 mg/L [R]; in assay [6] it was 0.12 mg/L [S]. Besides, the MIC in assay [7] turned out to be 0.25 mg/L [S]; in [8], 0.5 mg/L [S]; in assay [9], 0.5 mg/L [R].

On to “Candida tropicalis isolate 193 (ERG11 copies: 8, Erg11p: Y132F, S154F (heterozygous))”, for which the MIC is above 8 mg/L [R] in assay [1]; at most 0.06 mg/L [S] in assay [2]; 1 mg/L [R] in [3]; 0.03 mg/L [S] in assay [4]; 1020 mg/L [R] in [5]; 0.12 mg/L [S] in [6]. In addition, the MIC was found to be 0.06 mg/L [S] in assay [7], 1 mg/L [S] in assay [8] and 1 mg/L [R] in assay [9].

For the test system “Candida tropicalis isolate 340 (ERG11 copies: 2, Erg11p: no key change)”, the MIC in [1] was 0.12 mg/L [S]; in assay [2], at most 0.06 mg/L [S]; in [3], 0.25 mg/L [S]; in assay [4] it was 0.06 mg/L [S]; in assay [5], 1 mg/L [S]; in assay [6], 0.12 mg/L [S]. Also, the MIC in assay [7] came out at 0.03 mg/L [S]; in assay [8], 1 mg/L [S]; in assay [9] it was 0.25 mg/L [S].

For “Candida tropicalis isolate 190 (ERG11 copies: 5, Erg11p: Y132F, S154F (heterozygous))”, the MIC in [1] was at least 8 mg/L [R]; in assay [2], at most 0.06 mg/L [S]; in assay [3], 1 mg/L [R]; in assay [4], 0.03 mg/L [S]; in assay [5] it was 256 mg/L [R]; in assay [6] it was 0.06 mg/L [S]. For the same test system, the MIC came to 0.03 mg/L [S] in [7], 1 mg/L [S] in assay [8] and 1 mg/L [R] in [9].

With “Candida tropicalis isolate 182 (ERG11 copies: 2, Erg11p: no key change)”, the MIC in assay [1] was 0.12 mg/L [S]; in assay [2], 0.12 mg/L [S]; in [3], 0.12 mg/L [S]; in [4], 0.03 mg/L [S]; in [5], 1 mg/L [S]; in assay [6], 0.25 mg/L [S]. The MIC in assay [7] is 0.06 mg/L [S]; in [8], 0.5 mg/L [S]; in [9], 0.12 mg/L [S].

As for “Candida tropicalis isolate 41 (ERG11 copies: 2, Erg11p: no key change)”, the MIC in assay [1] was 0.06 mg/L [S]; in assay [2], at most 0.06 mg/L [S]; in assay [3], 0.06 mg/L [S]; in assay [4] it was 0.03 mg/L [S]; in [5], 1 mg/L [S]; in assay [6], at most 0.015 mg/L [S]. The MIC in assay [7] was found to be 0.03 mg/L [S]; in assay [8], 1 mg/L [S]; in [9] it was 0.06 mg/L [S].

On to “Candida tropicalis isolate 390 (ERG11 copies: 2, Erg11p: no key change)”, for which the MIC in assay [1] is 0.25 µg/mL; in assay [2], at most 0.06 mg/L [S]; in [3], 0.25 mg/L [S]; in assay [4], 0.015 mg/L [S]; in assay [5] it was 2 mg/L [S]; in assay [6], at most 0.015 mg/L [S]. Moreover, the values for the MIC in assay [7], in assay [8] and in assay [9] were 0.03 mg/L [S], 1 mg/L [S] and 0.25 mg/L [S], respectively.

As to “Candida tropicalis isolate 206 (ERG11 copies: 2, Erg11p: no key change)”, the MIC in assay [1] is 0.12 mg/L [S]; in [2] it was at most 0.06 mg/L [S]; in assay [3], 0.25 mg/L [S]; in assay [4], 0.03 mg/L [S]; in assay [5] it was 2 mg/L [S]; in [6], 0.03 mg/L [S]. For the same test system, the MIC in [7] is 0.03 mg/L [S]; in [8], 1 mg/L [S]; in assay [9], 0.25 mg/L [S].

The values are drawn from the supplement of paper PMC10724272.
